Results reported in paper PMC4336329 (PLoS ONE, 2015).
Hit rate of the full screen: of about 310,000 compounds, about 2,200 (0.71%) showed an effect of 50% or more. Effects have a minus sign here. The list shows a part of the results.

Molecular target: human ether-à-go-go-related gene (hERG) potassium channel (human, UniProt Q12809)
Test: primary screen, population patch clamp on CHO cells stably expressing hERG

human ether-à-go-go-related gene (hERG) potassium channel, sequence (Q12809 whole entry, looked up): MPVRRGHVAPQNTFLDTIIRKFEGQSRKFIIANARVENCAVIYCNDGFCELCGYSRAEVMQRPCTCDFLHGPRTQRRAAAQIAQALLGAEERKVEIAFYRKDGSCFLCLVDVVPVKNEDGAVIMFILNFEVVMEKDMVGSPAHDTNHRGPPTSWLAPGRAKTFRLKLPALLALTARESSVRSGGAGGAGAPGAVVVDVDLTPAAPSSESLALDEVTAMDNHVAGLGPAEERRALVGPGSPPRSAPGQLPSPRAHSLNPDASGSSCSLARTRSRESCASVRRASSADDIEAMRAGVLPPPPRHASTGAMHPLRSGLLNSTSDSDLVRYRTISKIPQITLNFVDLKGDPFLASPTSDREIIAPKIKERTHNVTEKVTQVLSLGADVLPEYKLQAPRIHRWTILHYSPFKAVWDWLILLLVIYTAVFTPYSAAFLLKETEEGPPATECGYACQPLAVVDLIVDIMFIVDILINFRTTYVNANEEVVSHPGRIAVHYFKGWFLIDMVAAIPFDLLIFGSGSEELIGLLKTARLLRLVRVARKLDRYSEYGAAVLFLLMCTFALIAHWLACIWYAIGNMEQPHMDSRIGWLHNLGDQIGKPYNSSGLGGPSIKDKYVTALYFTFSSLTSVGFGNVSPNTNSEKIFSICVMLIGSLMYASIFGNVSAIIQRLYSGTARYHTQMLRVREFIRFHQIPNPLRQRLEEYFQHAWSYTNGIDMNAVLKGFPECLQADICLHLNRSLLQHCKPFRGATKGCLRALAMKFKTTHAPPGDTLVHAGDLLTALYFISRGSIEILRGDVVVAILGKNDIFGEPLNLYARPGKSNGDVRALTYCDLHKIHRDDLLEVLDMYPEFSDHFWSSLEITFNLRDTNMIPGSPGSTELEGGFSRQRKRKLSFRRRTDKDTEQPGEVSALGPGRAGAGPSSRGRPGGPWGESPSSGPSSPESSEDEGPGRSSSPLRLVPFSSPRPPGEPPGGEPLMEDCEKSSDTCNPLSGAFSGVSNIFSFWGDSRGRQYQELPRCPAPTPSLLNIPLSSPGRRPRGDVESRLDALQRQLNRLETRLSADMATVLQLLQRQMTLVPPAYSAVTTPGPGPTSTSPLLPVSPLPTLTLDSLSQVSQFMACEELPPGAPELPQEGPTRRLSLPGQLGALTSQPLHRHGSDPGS

Going from `COc1ccc(Cl)cc1N(CC(=O)NC(C(C)C)C(C)C)S(C)(=O)=O` to `COc1cc(/C=N/NC(=O)Cc2csc(C)n2)ccc1OCC(C)C`, the “hERG current change (%, negative = inhibition) at 1uM” value rises from 5.31% to 6.66%.

Compared with `Cc1ccccc1CC1S/C(=N/N=C/c2ccco2)NC1=O` (centres unmarked), `O=C(CN1C(=O)NC2(CCOc3ccccc32)C1=O)Nc1ccc(F)c(F)c1F` (centres unmarked) is lower in “hERG current change (%, negative = inhibition) at 1uM” value: 14.5% for the first, 7.15% for the second.

Compared with `c1ccc(-n2ncc3c(NCc4ccc5c(c4)OCO5)ncnc32)cc1`, `Cc1cccc(C)c1NC(=O)COC(=O)c1ccc2c(c1)OCO2` is higher in “hERG current change (%, negative = inhibition) at 1uM” value: -3.43% for the first, 2.63% for the second.

First: C=CCN1c2ccccc2[C@]23C[C@@H](C(=O)OC)N(C(=O)NCCC)C2=NC(C(=O)OC)=C(C(=O)OC)[C@H]13
Second: CCCC(=O)CN1C(=O)C2(OCCO2)c2ccccc21
The “hERG current change (%, negative = inhibition) at 1uM” value of the first is higher: 16.2% for the first, 8.5% for the second.

Compared with `CC(=O)N1CCOCCOCCN(C(C)=O)CCOCC1`, `Cc1nn2c(N3CCOCC3)cc(C(C)C)nc2c1-c1ccccc1` is lower in “hERG current change (%, negative = inhibition) at 1uM” value: 17.2% for the first, 7.26% for the second.

Compared with `COc1ccc(S(=O)(=O)NN=C2CCCC2)cc1`, `O=C(Nc1cccc(S(=O)(=O)Nc2ccc(Cl)cc2)c1)c1cc2c(s1)CCCC2` is higher in “hERG current change (%, negative = inhibition) at 1uM” value: 4.71% for the first, 5.26% for the second.

First: Cc1csc(Sc2ccc([N+](=O)[O-])cc2C(=O)OCC(=O)NC(=O)NC(C)(C)C)n1
Second: CCS(=O)c1ccccc1C(=O)OCC(=O)Nc1cccc(S(=O)(=O)N2CCCCC2)c1 (centres unmarked)
The “hERG current change (%, negative = inhibition) at 1uM” value of the first is higher: 11.8% for the first, 9.4% for the second.

Going from `CCO.N#CC1=C(N)OC2=C(CC/C2=C\c2ccccc2Cl)C1c1ccccc1Cl` (centres unmarked) to `O=C(Nc1ccccc1[N+](=O)[O-])C1(c2ccccc2)CCOCC1`, the “hERG current change (%, negative = inhibition) at 1uM” value falls from 4.4% to 1.47%.

Going from `COc1ccc2c(c1)nc(CN1CCN(CCO)CC1)n2C` to `COc1ccc(OC)c(NC(=O)C2CCN(c3cc(-c4ccccc4)nc4ncnn34)CC2)c1`, the “hERG current change (%, negative = inhibition) at 1uM” value falls from 16.6% to -2.67%.

First: COc1ccc(/C=N/Nc2ncnc3sc(C)c(C)c23)cc1
Second: Cc1cc(C)n(-c2ccc(NC(=O)C3CCCCN3C(=O)c3ccoc3)cc2)n1 (centres unmarked)
The “hERG current change (%, negative = inhibition) at 1uM” value of the first is higher: 13.3% for the first, 4.95% for the second.

First: CCCCn1c(=O)[nH]c(=O)c2c1nc(-c1ccc(OC(F)F)c(OC)c1)n2C
Second: Nc1cc(=O)[nH]c(SCC(=O)N2CCc3ccccc3C2)n1
The “hERG current change (%, negative = inhibition) at 1uM” value of the first is higher: 14.9% for the first, 10% for the second.

With `O=C(O[C@@H]1[C@H](Cc2ccccc2)NS(=O)(=O)[C@H]2C[C@@H]3C=C[C@]12O3)c1ccccc1Br` the “hERG current change (%, negative = inhibition) at 1uM” value was 17.6%.
